# Data published in PubChem BioAssay AID485294 (National Center for Advancing Translational Sciences (NCATS), 2010).
# About 150 (0.041%) of roughly 370,000 compounds were called active. Inconclusive means that the source gave no clear call. Such entries were picked first, then a sample of the others. Calls come from the whole dose curve; as a rule, active = well fitted inhibition curve with a large enough effect; inconclusive = small, poorly fitted or top-dose-only effect; inactive = flat fitted curve, though single readings scatter. Potencies of inconclusive entries are left out as doubtful fits.
# Biological target: Beta-lactamase (Escherichia coli (strain K12)) (UniProt P00811)
# Sequence of UniProt P00811 (P00811 whole entry, looked up): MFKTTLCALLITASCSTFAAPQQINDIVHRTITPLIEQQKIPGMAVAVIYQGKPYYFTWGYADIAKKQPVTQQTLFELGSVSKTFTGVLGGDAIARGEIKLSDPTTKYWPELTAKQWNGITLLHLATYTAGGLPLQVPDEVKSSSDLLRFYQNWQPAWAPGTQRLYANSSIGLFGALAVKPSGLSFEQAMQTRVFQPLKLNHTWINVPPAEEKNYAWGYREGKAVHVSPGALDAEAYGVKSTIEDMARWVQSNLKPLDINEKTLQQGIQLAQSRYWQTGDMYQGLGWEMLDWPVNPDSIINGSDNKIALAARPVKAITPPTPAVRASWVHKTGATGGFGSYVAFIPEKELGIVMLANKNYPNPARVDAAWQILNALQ
# Assay: qHTS Inhibitors of AmpC Beta-Lactamase (assay with detergent); note: nearly all actives have a fitted effect of over 25% in size;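 for activity change, negative = inhibition: 0% = no-compound wells and -100% = no-enzyme wells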
# Conditions: AmpC hydrolysis of nitrocefin, absorbance 480 nm, 0.01% Triton; activity change, negative = inhibition: at 114 µM (top of the series)
# Summary of the method: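 AmpC (5.3 nM in the dispensed reagent) in 20 mM phosphate pH 7.0 with 0.01% (detergent screen) or 0.0001% Triton X-100 was preincubated with compounds for 15 min at room temperature. Nitrocefin was then added from an 800 uM solution, and hydrolysis was followed at 480 nm.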
# Potency is the fitted concentration of half-maximal effect; tags give direction and shape of the fitted curve.
Compound,Potency,"activity change, negative = inhibition"
[O-][N+]1=C(c2cccs2)CN(O)C1,"inconclusive [inhibitor, full curve, poor fit]",
CCN(CC)C(=O)c1nn(-c2ccccc2)c2c1C1CCC2(C)C1(C)C (stereo not given),,inactive: 6.63%
Cc1ccc(-c2nnc(N)s2)cc1,"inconclusive [inhibitor, partial curve, poor fit]",
Cc1cccc(Nc2nnc(SCC(=O)NCc3cccs3)s2)c1C,"inconclusive [inhibitor, full curve, poor fit]",
COc1ccc(CC(=O)NC2CCCCCC2)c(OC)c1,,inactive: 12.3%
O=C(Nc1ccc2[nH]ncc2c1)c1ccc(F)cc1,"inconclusive [inhibitor, partial curve, poor fit]",
CCOc1ccccc1C(=O)NCC(=O)NCCCc1ccccc1,"inconclusive [inhibitor, partial curve]",
CCCC1=C(C(=O)OCC)C(c2cc(Cl)cc(OC)c2OCc2ccccc2)NC(=O)N1 (stereo not given),"inconclusive [inhibitor, full curve, poor fit]",
O=C1COc2cccnc2N1,"inconclusive [inhibitor, single point]",
COc1ccc(S(=O)(=O)N2CCOCC2)cc1NC(=O)COc1ccc(C(C)=O)cc1OC,"inconclusive [inhibitor, full curve, poor fit]",
COc1cc(OC)cc(C(=O)Nc2nnc(-c3cccnc3)o2)c1,"inconclusive [inhibitor, full curve, poor fit]",
Cc1ccc(C)c(S(=O)(=O)N2CCCN(C)CC2)c1,"inconclusive [inhibitor, full curve]",
COc1ccc2cc3cc(C(=O)NCc4cccnc4)oc3nc2c1,"inconclusive [inhibitor, full curve, poor fit]",
CN(C(=O)COC(=O)c1ccccc1SCC(=O)N1CCCC1)C1CCS(=O)(=O)C1 (stereo not given),,inactive: -2.18%
Cc1c(C(=O)NCc2ccc(F)cc2)oc2ccc(S(=O)(=O)N3CCOCC3)cc12,"inconclusive [inhibitor, full curve, poor fit]",
CC(C)CC(=O)Nc1ccc(Nc2ccccc2)cc1,,inactive: -10.9%
CCCNC(=O)C1CCC(Cn2c(=O)c3sccc3n(CC(=O)N(CC)CC)c2=O)CC1 (stereo not given),,inactive: 9.6%
CC(=O)Nc1cccc(C(=O)OC(C)C(=O)NC(=O)NC2CCCCC2)c1 (stereo not given),"inconclusive [inhibitor, full curve]",
Cc1ccc(S(=O)(=O)Nc2cccnc2)cc1,,inactive: 2.6%
COc1ccc(-n2c(SCC(=O)Nc3ccccc3)nc3c(c2=O)SCC3)cc1,"inconclusive [inhibitor, partial curve, poor fit]",
O=c1[nH]c(SCc2ccc(Cl)cc2)nc2ccccc12,,inactive: 4.52%
Cc1ccc(CCN2CC(C(=O)NCc3ccco3)CC2=O)cc1 (stereo not given),,inactive: -3.65%
CC(C)c1cc(NC(=O)CCl)on1,"inconclusive [inhibitor, single point]",
O=C(CSc1nc2c([nH]c3ccccc32)c(=O)n1-c1ccc(Cl)cc1)NCc1ccccc1,,inactive: 3.71%

Compound,Potency,"activity change, negative = inhibition"
O=Cc1ccc(OCCCOc2cccc3cccnc23)cc1,,inactive: 5.47%
CCN(CC)C(=O)COC(=O)c1cc(-c2ccco2)nc2ccccc12,"inconclusive [inhibitor, full curve, poor fit]",
CN(Cc1ccncc1)C1CC(=O)N(c2ccc(Cl)cc2)C1=O (stereo not given),"inconclusive [inhibitor, full curve, poor fit]",
O=C(O)/C=C/c1cnc2ccccc2c1,"inconclusive [inhibitor, single point]",
COc1cccc(C(=O)N(Cc2ccc(N(C)C)cc2)Cc2ccco2)c1,,inactive: 14%
Cn1c(NCc2ccco2)nc2c1c(=O)n(Cc1ccc(Cl)cc1)c(=O)n2C,"inconclusive [inhibitor, single point]",
COC(=O)c1ccc(Nc2nc(C)cc(C)n2)cc1,"inconclusive [inhibitor, full curve, poor fit]",
COc1ccc(-c2csc3ncnc(NCCO)c23)cc1,"inconclusive [inhibitor, partial curve, poor fit]",
Cc1cccc(OCc2nnc(SCC(=O)N(C)C3CCCCC3)o2)c1,"inconclusive [inhibitor, partial curve, poor fit]",
Cc1cccc(C(=O)NCC(=O)OCC(=O)N(C)CC(=O)Nc2ccc(F)cc2)c1,"inconclusive [inhibitor, partial curve, poor fit]",
COc1ccccc1NC(=S)N/N=C/c1cccc(C)c1,"inconclusive [inhibitor, full curve, poor fit]",
COc1ccccc1N1CCN(CCCNC(=O)Nc2ccccc2)CC1,"inconclusive [inhibitor, single point]",
O=C(Cc1ccccn1)Nc1ccccc1,"inconclusive [inhibitor, full curve, poor fit]",
CCC(=O)N(c1nnc(SCC(=O)Nc2ccccc2Cl)s1)C1CC1,,inactive: -2.38%
O=C(OCc1ccccc1F)c1ccc2c(c1)-c1ccccc1C2=O,"inconclusive [inhibitor, single point]",
Cc1cccc(C2Nc3ccccc3C(=O)N2NC(=O)c2ccc([N+](=O)[O-])cc2)n1 (stereo not given),"inconclusive [inhibitor, full curve]",
CC1(C)CC(NC(=O)C2CCC(=O)N(Cc3ccccc3F)C2)CC(C)(C)C1 (stereo not given),,inactive: 0.633%
CCOc1ccc(S(=O)(=O)N2CCC(C(=O)NCc3cccnc3)CC2)cc1C,"inconclusive [inhibitor, full curve, poor fit]",
Cc1cc(C)cc(NC(=O)CSc2nc3c(c(=O)n2C)SC(C)C3)c1 (stereo not given),"inconclusive [inhibitor, single point]",
Cc1ccccc1N1CC(C(=O)N2CCCCCC2)CC1=O (stereo not given),"inconclusive [inhibitor, full curve, poor fit]",
CCCC(CCC)c1nc2ccncc2[nH]1,,inactive: -1.46%
CC(C)CSc1nnc2c(n1)[nH]c1ccccc12,"inconclusive [inhibitor, full curve, poor fit]",
CCN1CCCC1CNCc1cccc(OC)c1OCc1ccccc1 (stereo not given),"inconclusive [inhibitor, partial curve]",
C=C(C)COc1ccc(-c2n[nH]c(C)c2-c2ccccc2OC)c(O)c1,"inconclusive [inhibitor, partial curve, poor fit]",

Compound,Potency,"activity change, negative = inhibition"
O=C(CCCNS(=O)(=O)c1cccs1)N1CCc2ccccc2C1,"inconclusive [inhibitor, single point]",
Cc1nnc(SCCCn2c(N3CCN(c4ccccc4)CC3)nc3c2c(=O)[nH]c(=O)n3C)s1,"inconclusive [inhibitor, full curve, poor fit]",
COc1ccc(/C=C/C(=O)OCC(=O)Nc2c(C)cccc2C)cc1,"inconclusive [inhibitor, partial curve]",
COc1ccc(-c2oc3ccc(-c4ccc(OC)nc4)cc3c2C#CC2(O)CCCCC2)cc1,"inconclusive [inhibitor, full curve, poor fit]",
CC(=O)N(C)c1ccc(NC(=O)c2ccccc2C(=O)O)cc1,,inactive: 4.72%
Cc1ccc(NC(=O)c2ccc(COc3ccccc3)o2)nc1,,inactive: -3.55%
Cn1cccc1CC(=O)NNC(=O)Nc1ccc(F)cc1,"inconclusive [inhibitor, full curve, poor fit]",
O=C(Nc1ccccc1C(=O)Nc1ccc(Br)cn1)c1ccccc1Cl,"inconclusive [inhibitor, single point]",
Cc1cc(C)c(S(=O)(=O)NC2CC(C)(C)NC(C)(C)C2)cc1C,"inconclusive [inhibitor, partial curve, poor fit]",
Cn1c(-c2ccccc2)cnc1NCc1cc2c(cc1[N+](=O)[O-])OCO2,,inactive: -10.8%
CCCN(C(=O)c1cc(-c2ccco2)nc2ccccc12)c1c(N)n(Cc2ccccc2)c(=O)[nH]c1=O,"inconclusive [inhibitor, partial curve, poor fit]",
CCOC(=O)c1ccc(NC(=O)CCC2COc3ccccc3O2)cc1 (stereo not given),"inconclusive [inhibitor, partial curve]",
O=C(NC1CCCc2ccccc21)C1CCN(c2nnc(-n3cccc3)s2)CC1 (stereo not given),"inconclusive [inhibitor, full curve, poor fit]",
Cc1c(O)c(CN2CCCC2)cc2c1oc(=O)c1ccccc12,"inconclusive [inhibitor, full curve, poor fit]",
Cc1cc(C(=O)Nc2cccc3ccccc23)n(-c2ccccc2)n1,,inactive: -6.97%
O=C(Nc1nnc(Cc2ccccc2)s1)c1ccccc1,,inactive: 0.621%
O=C(CC(c1ccco1)C1CCCCC1=O)c1ccco1 (stereo not given),"inconclusive [inhibitor, partial curve]",
CSc1cccc(NC(=O)N2CCCC(CNS(=O)(=O)Cc3ccccc3)C2)c1 (stereo not given),,inactive: 0.401%
O=C(NCCc1ccccc1)c1ccccc1NS(=O)(=O)N1CCCC1,,inactive: -9.91%
CC(C)CN1CN(Cc2ccco2)CNC1=S,,inactive: 1.19%
COc1ccccc1-c1noc(-c2ccc(N(C)Cc3ccccc3)c([N+](=O)[O-])c2)n1,,inactive: 1.01%
Cn1nnnc1SCC(=O)Nc1ccc(Br)cc1Cl,"inconclusive [inhibitor, partial curve, poor fit]",
